The record followed here is PubChem BioAssay (NCI).

“And” between values parts separate entries of the source, which are not always exact repeats. Equal values may be shown once.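 How tested: cells in 96-well plates exposed to compound for 48 hours at five concentrations. GI50 is the concentration that inhibits growth by half. TGI: total growth inhibition.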

The test has as its system NCI-H322M lung. Description: DTP human tumour cell line panel, 48 h.
On to `O=C(O)C1CCC(=O)N1C(=O)COc1cc(Cl)c(Cl)cc1Cl` (stereo not drawn), for which the TGI (usually the concentration giving total growth inhibition) was above 100 µM.

`O=C1Nc2noc(=O)nc2NO1` registered a TGI above 200 µM.

`Cc1ccc(S(=O)(=O)OCCN(CCOS(=O)(=O)c2ccc(C)cc2)c2ccc(C=O)cc2)cc1` displayed a TGI of 46.9 µM.

`COC1=C(OC)C(=O)C(Cc2c(Cl)nc3sccn23)=C(C)C1=O` returned a TGI of 29.8 µM.

In the case of `COc1ccc([C@@]23Oc4cc(OC)cc(OC)c4[C@]2(O)[C@H](O)[C@H](C(=O)N(C)C)[C@H]3c2ccccc2)cc1`, the GI50 – broadly, the concentration giving 50% growth inhibition – was 0.0231 µM; the TGI is 0.0771 µM and 0.194 µM and 0.117 µM.

The molecule `COC(=O)c1c(O)ccc2c1c1c(n2Cc2ccc(OC)cc2)C(=O)c2ccccc2C1` had a TGI above 100 µM.

As to `Cc1nc2sccn2c1C(=O)NNC(N)=S`, the TGI was above 100 µM.

In the case of `NC(=O)CSc1nc2ccccc2c(=O)n1N`, the TGI was above 100 µM.

Turning to `O=c1[nH]c(=S)[nH]c(O)c1/C=C1\C=Nc2ccccc21`, the GI50 was 16.9 µM and the TGI came to 65.1 µM.

In turn, `OC1=CN=C(c2ccccc2)Oc2ccccc21` returned a TGI above 100 µM.

As to `CC1(C)CCC[C@@]2(C)C1CC[C@@]1(CO)O[C@H](C3=CC(=O)OC3O)C[C@H]12` (stereo partly drawn), the TGI was determined as 31.3 µM.

`CCOC(=O)C(Cc1ccc(N=NN(C)C)cc1)NC(=O)CC1c2ccccc2-c2ccccc21` (stereo not drawn) returned a total growth inhibition concentration (TGI) above 100 µM.

In turn, `Cc1n[nH]c(=O)n1-n1cccc1` gave a TGI above 100 µM.

The molecule `C=CCOC(C)(C)C1=CCC(C)CC1` (stereo not drawn) had a TGI above 100 µM.

As for `S=C(Sc1ccc(Cl)cc1)Sc1ccc(Cl)cc1`, the GI50 was 5.67 µM and the TGI was found to be 23 µM.

On to `CC[n+]1c(-c2ccccc2)c2cc(N)ccc2c2ccc(N)cc21`, for which the GI50 was 2.67 µM and 3.03 µM and 7.56 µM; the TGI is 21.2 µM and 17.6 µM and 46.6 µM.

`CC1(C)C(=O)/C(=C/c2ccccc2)C(C)(C)C1(C)C` yielded a TGI above 100 µM.

On to `O=C1c2ccccc2-c2c1c1ccccc1c(=O)n2CCCNCCNCCCn1c2c(c3ccccc3c1=O)C(=O)c1ccccc1-2`, for which the GI50 was 0.265 µM and the TGI turned out to be 2.64 µM.

The molecule `O=c1[nH]ncc2[nH]c3c(c12)CCc1ccccc1-3` showed a concentration for total growth inhibition (TGI) above 100 µM.

Take `C1CN2CCO[SiH](O1)OCC2`: the TGI is above 100 µM.

As for `Cc1nnc(SCc2nc(C#N)c(C#N)nc2CSc2nnc(C)s2)s1`, the TGI was above 100 µM.

`COc1ccc(S(=O)(=O)NC(CCC(=O)NC(N)=O)C(=O)NC(N)=O)cc1` (stereo not drawn) came in with a TGI above 100 µM.

With `CN(Cc1cnc2nc(N)nc(N)c2n1)c1ccc(C(=O)NC(CCC(=O)O)C(=O)O)c2ccccc12` (stereo not drawn), the TGI was above 1000 µM.
